About 1,700 (3.3%) of roughly 52,000 compounds were called active. No stated cut-off is given here; in the data, active means survival mostly below about 52% (no sharp cut-off); inactive means mostly above about 56%. The list shows a part of the results.

For this experiment, the system named is Wild type. Briefly: growth inhibition of S. aureus wild type versus tarO mutant, primary screen, teichoic acid synthesis inhibitors, RN4220, OD600 (AID 463173). Conditions: S. aureus RN4220 wild type/DeltatarO growth, OD600, 18 h, hits give low values, screened at 18.75 µg/mL (by protocol).
For `Cc1ccc2cc3c(N)[nH]nc3nc2c1`, the survival is inactive: 101%. As for `COC(=O)CC1Oc2ccc(C)cc2-n2cc(-c3ccc(F)cc3)nc21` (configuration not stated), the survival was inactive: 66%.

On to `COC(=O)c1ccc(NC(=O)c2cccc3c2C(=O)N(C2CCCCC2)C3)cc1`, for which the survival was inactive: 88%. `Cc1ccc(C)c(NC(=O)CSc2ncc3c(n2)-c2cc(Cl)ccc2N(Cc2ccccc2F)S3(=O)=O)c1`: the survival is inactive: 71%.

As for `Cc1ccc(C)c(N2CCN(C(=O)CCn3c(=O)[nH]c4ccccc4c3=O)CC2)c1`, the survival is inactive: 113%.

Consider `CCCSCCCNC(=O)c1cc2n(n1)CCCN(Cc1ccc(C)cc1)C2=O`, for which the survival was inactive: 113%. For the molecule `COc1ccc(N2CCN(C(=O)c3cc(NS(=O)(=O)c4ccc(F)cc4)ccn3)CC2)cc1`, the survival is inactive: 53%. Under `CCOc1ccc(CCNC(=O)CCN2N=C(c3ccc(OC)cc3)CCC2=O)cc1OCC` stands inactive: 55%; under `COc1ccc(-c2oc3ncn4nc(-c5ccccc5Cl)nc4c3c2-c2ccc(OC)cc2)cc1`, inactive: 78%; under `Cc1cc(Cl)ccc1NC(=O)CCn1nc(C)c2c(C)n(-c3ccccc3)nc2c1=O`, inactive: 68%. For the molecule `Cc1nc(SCC(=O)OCN2C(=O)c3ccccc3C2=O)n[nH]1`, the survival is inactive: 106%.

As to `Cc1cccc(OCCSc2nc3ccc(NC(=O)COc4ccccc4F)cc3s2)c1`, the survival was inactive: 92%. The value for `COc1ccc(Cn2ccc3nc(C)c(C(=O)NCc4ccc(C)cc4)cc3c2=O)cc1` was inactive: 47%; that for `CC1(C)CC(=O)c2cc(-c3nc(-c4ccc(Cl)cc4)cs3)c(=O)n(-c3ccc(F)cc3)c2C1` was inactive: 76%. The value for `CCOc1ccc(NC(=O)Cn2cc(S(=O)(=O)N3CCN(c4ccccc4F)CC3)c3ccccc3c2=O)cc1` was inactive: 71%; that for `O=C(NCCc1csc2nc(-c3cccc(F)c3)nn12)c1ccc(Br)o1` was inactive: 64%; that for `COc1ccc(-c2noc(-c3ccc(N4CCC(C)CC4)c([N+](=O)[O-])c3)n2)cc1OC` was inactive: 89%. `COc1ccc(N(CC(=O)N2CCN(c3ccc(F)cc3)CC2)S(=O)(=O)c2c(C)n[nH]c2C)cc1`: the survival was inactive: 91%. With `CC1(C)Cc2c(c(-c3ccccc3)[nH]c(=O)c2C#N)CO1`, the survival was inactive: 104%.

For the molecule `Cc1ccc(CNC(=O)CSc2nc3n[nH]c(C)c3c(=N)n2-c2cccc(C)c2)cc1`, the survival is inactive: 133%. With `CCCCNc1nc2c(c(=O)n(Cc3ccc(Cl)c(Cl)c3)c(=O)n2C)n1C`, the survival is active: 1%. As for `CCc1ccc(NC(=O)CCNS(=O)(=O)c2ccc3c(c2)CCCC(=O)N3)cc1`, the survival is inactive: 87%. For `COc1cccc(C(=O)Nc2c3c(nn2-c2ccc(Cl)cc2)CS(=O)(=O)C3)c1`, the survival is inactive: 84%. For the molecule `CCN(CC)C(C)C(=O)Nc1c(C)cccc1C` (configuration not stated), the survival is inactive: 109%. For `Cc1ccc(CNC(=O)c2cccc(-n3cnc4cccnc43)c2)cc1`, the survival is inactive: 97%. On to `CCOC(=O)c1scc(-c2ccccc2)c1S(=O)(=O)N1CCN(c2ccccc2OC)CC1`, for which the survival was inactive: 71%.

On to `COc1ccc(NC(=O)c2oc3ccc(S(=O)(=O)N(C)C4CCCCC4)cc3c2C)cc1`, for which the survival was inactive: 73%. For the molecule `Cc1ccc(NC(=O)C(Cc2ccccc2)n2cccc2)cc1C` (configuration not stated), the survival was active: 13%. In the case of `Cc1ccc(-c2nc3ccccn3c2Nc2ccc3c(c2)OCO3)o1`, the survival is inactive: 48%. Consider `O=C(/C=C/c1cn(CC(O)CN2CCCCCC2)c2ccccc12)c1ccc(Br)cc1` (configuration not stated), for which the survival is active: 14%. The value for `C=CCC(CC=C)(CNC(=O)C(=O)Nc1ccc(C(=O)OCC)cc1)c1ccccc1` was inactive: 93%.

With `COC(=O)c1ccccc1NC(=O)c1cc2c(-c3ccc(OC)c(OC)c3)nn(C)c2s1`, the survival was inactive: 88%. On to `CCOC(=O)c1cc(-c2ccc(C)cc2)n(CC(=O)NC2CCCCCC2)c1C`, for which the survival is inactive: 92%.

Take `COc1cccc(NS(=O)(=O)c2ccc3c(c2)CCCN3C(=O)C2CCC2)c1`: the survival is inactive: 143%.

Regarding `Cc1cc2nc(-c3cccc(NC(=O)CSc4ccc(Cl)cc4)c3)oc2cc1C`, the survival was inactive: 74%. As to `COc1ccc(-c2nn(-c3cccc([N+](=O)[O-])c3)c3c2cnc2cc4c(cc23)OCO4)cc1`, the survival was inactive: 68%. The value for `CCCN(C(=O)c1cc2c(s1)-c1c(C)cccc1OC2)c1ccc(OCC)cc1` was inactive: 95%. As for `CC(C)c1ccc(Nc2nc3c(S(=O)(=O)c4ccc(Br)cc4)nnn3c3ccsc23)cc1`, the survival was inactive: 76%. With `COc1ccc(C2c3[nH]c4ccc(OC)cc4c3CCN2C(=O)Nc2ccccc2)cc1` (configuration not stated), the survival was inactive: 78%. Consider `O=C(O)CCNc1ccc(Cl)cn1`, for which the survival is inactive: 86%.

Consider `CN1CCC(OC(=O)c2cc3cc(Cl)cc(Cl)c3oc2=O)CC1`, for which the survival is inactive: 105%.

On to `Cc1cccc(-c2c3c(=O)n(C)c(=O)n(C)c3c3cnc4ccccc4n23)c1`, for which the survival is inactive: 89%. As to `Cc1c(NC(=O)Nc2ccc(C#N)cc2)c(=O)n(-c2ccccc2)n1C`, the survival is inactive: 124%. Consider `O=C(Nc1c(Cl)cccc1Cl)c1cc(-c2cccc(O)c2)on1`, for which the survival is active: 5%. The value for `Cc1ccc(NC(=O)Cn2cc(S(=O)(=O)c3ccccc3)c(=O)c3cc4c(cc32)OCO4)cc1` was inactive: 130%. Under `COc1ccccc1Nc1nn2c(=O)c3ccc(C(=O)NC(C)c4ccccc4)cc3nc2s1` (configuration not stated) stands inactive: 85%; under `NC1(C2CCCCC2=O)CCCCC1` (configuration not stated), inactive: 107%. In the case of `Cc1cccc(C(=O)Nc2ccc(OCc3cc(=O)n4c5c(sc4n3)CCCC5)cc2)c1`, the survival is inactive: 80%. Under `O=C(N1CCOCC1)N1CCc2ccccc21` stands inactive: 109%. As to `CCn1c(CNc2cccc(Cl)c2)nnc1SCc1ccccc1`, the survival is inactive: 105%. Under `COC(=O)Cc1c(C)c2cc3c(c(C)c2oc1=O)OCN(CCc1ccc(OC)cc1)C3` stands inactive: 87%. The value for `CCN(CCN(C)C)C(=O)C1CCN(S(=O)(=O)c2c(C)noc2/C=C/c2ccccc2F)CC1` was inactive: 126%; that for `Cc1cc(C)c2c(n1)SCCN2C(=O)Nc1ccc(C(=O)Nc2ccc(C(C)C)cc2)cc1` was inactive: 67%; that for `CCN(CC)c1ccc2cc(-c3nc(-c4cc(OC)c(OC)c(OC)c4)no3)c(=O)oc2c1` was inactive: 100%. For `Cc1cc(C)c(NC(=O)Cn2nnc(-c3nc(-c4ccccc4)no3)c2N)c(C)c1`, the survival was inactive: 59%. On to `O=C(OC(C(=O)NC1CCCCC1)c1ccccc1)c1ccco1` (configuration not stated), for which the survival is inactive: 111%. In the case of `CC(=O)c1ccc(NC(=O)c2nc3nc(C)cc(C(F)F)n3n2)cc1`, the survival is inactive: 69%. Under `CCOc1ccc(-n2nc(CO)c(C(=O)NCc3cccc(OC)c3)n2)cc1` stands inactive: 81%. Under `Cc1cc(C)cc(-n2ccn(CC(=O)Nc3ccccc3F)c(=O)c2=O)c1` stands inactive: 82%. The value for `COC(=O)c1ccc(NC(=O)COC(=O)CSc2nc(C)cc(C)n2)cc1` was inactive: 96%; that for `COc1cc2cc(CNc3ccccc3)c(=O)n(CC(=O)Nc3cc(C)cc(C)c3)c2cc1OC` was inactive: 91%; that for `O=C(CCC1N=C2c3ccccc3N=C(SCc3ccc(F)cc3)N2C1=O)NC1CCCCC1` (configuration not stated) was inactive: 71%. With `COc1ccc(-c2cc(=O)oc3c4c(ccc23)OCN(Cc2cccc(OC)c2)C4)cc1`, the survival was inactive: 96%. Under `COC(=O)c1ccccc1NC(=O)Cn1c(=O)n(CCCC(=O)NCc2ccccc2OC)c(=O)c2ccccc21` stands inactive: 131%; under `Cc1ccc(C)c(NC(=O)C(c2ccccc2)N2Cc3ccccc3C2=O)c1` (configuration not stated), inactive: 128%; under `CCOC(=O)C1CCCN(c2c3c(nc4cc(-c5ccc(F)cc5)nn24)CCCC3)C1` (configuration not stated), inactive: 121%. Regarding `COc1ccccc1NC(=O)C1CCN(c2cnccn2)CC1`, the survival was inactive: 86%. `CC(=O)N1CCCc2cc(S(=O)(=O)N3CCN(c4cccc(C(F)(F)F)c4)CC3)ccc21`: the survival was inactive: 113%. As to `CSc1ncc(C(=O)Nc2cc(Cl)ccc2C)c(-c2ccccc2)n1`, the survival is inactive: 88%. `Cc1ccccc1-c1noc(-c2cc(-c3ccc(F)cc3)n[nH]2)n1`: the survival was inactive: 83%. The value for `Cc1ccc(NC(=O)C2CCC(CNS(=O)(=O)c3ccc4c(c3)CCCC(=O)N4)CC2)c(C)c1` (configuration not stated) was inactive: 75%. Turning to `COc1ccc(CN(Cc2nc3ccccc3c(=O)[nH]2)C(=O)Nc2ccccc2)cc1`, the survival is inactive: 119%. As to `CCOC(=O)c1ccc(NC(=O)CSc2nc3c([nH]c4ccccc43)c(=O)n2C)cc1`, the survival is inactive: 59%. With `Cc1cn2c(=O)cc(COc3ccccc3NC(=O)c3ccc(Cl)cc3)nc2s1`, the survival was inactive: 85%. Consider `Cc1ccc2oc(-c3ccc(Cl)c(NC(=O)c4ccc(OC(C)C)cc4)c3)nc2c1`, for which the survival is inactive: 82%.

Take `CCCCc1nc2ccccc2n1CC(=O)N(COCC)c1c(C)cccc1CC`: the survival was active: -1%. Take `Cc1cc(C)cc(NC(=O)C2CCN(S(=O)(=O)c3ccc4c(c3)oc(=O)n4C)CC2)c1`: the survival was inactive: 90%.

Take `O=C(/C=C/c1ccco1)NC(=S)NC1CCCCC1`: the survival was inactive: 107%. Consider `Cc1ccc(S(=O)(=O)N(CC(=O)Nc2ccc3c(c2)OCO3)c2ccc(C)c(Cl)c2)cc1`, for which the survival is inactive: 91%. For the molecule `CC(C)c1ccc(Nc2c(-c3ccco3)nc3ccccn23)cc1`, the survival is inactive: 33%. With `COc1cc(NC(=O)c2ccc(-n3cnc4cccnc43)cc2)cc(OC)c1`, the survival was inactive: 66%. For the molecule `COc1ccc(/C=C/C(=O)Nc2ccc3nc(N4CCCCC4)cc(C)c3c2)cc1OC`, the survival was inactive: 76%.

Take `CC1Cc2ccccc2N1C(=O)CSc1nnc(-c2cccc(Cl)c2)o1` (configuration not stated): the survival was inactive: 37%. Regarding `CCOC(=O)c1cc(NC(=O)c2ccc(OC)cc2)c(=O)n2c1oc1ccc(Cl)cc12`, the survival is inactive: 77%.

As for `CCn1c(CNC(=O)C23CC4CC(CC(C4)C2)C3)nnc1SCC(=O)Nc1ccc(F)cc1`, the survival is inactive: 79%. With `O=C(CCc1ccccc1)NCc1ccc2c(c1)CCN2C(=O)c1ccc(Cl)cc1`, the survival is inactive: 85%. Regarding `CCOc1ccc(CCNC(=O)c2cc3c(=O)n(C)c4ccccc4c3n2C)cc1`, the survival was inactive: 78%.
